Source: the supplement of paper PMC11417369
± gives the standard deviation of the averaged measurements. This is one part of the list.

system: PfAP2-EXP AP2 domain (GST-tagged); assay: gcPBM binding intensity (ln(normalized median fluorescence intensity)); higher = stronger DNA binding
Summary of the method: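 Plasmodium falciparum DNA-binding domains carrying a GST tag were expressed in E. coli and applied for 1 h, at about 25 μg on average, to an Agilent 4 × 180k array. The array held primer-extended double-stranded 36-bp intergenic genomic probes together with negative controls, and binding took place in 1× PBS with 1% milk, 0.2 mg/ml BSA, 0.5% salmon testes DNA and 0.03% Triton X-100. An Alexa488 anti-GST antibody detected bound protein, and the array was scanned at 488 nm. Binding intensity is taken as the highest Masliner-normalised natural-log median intensity across replicate spots of either probe orientation.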

Sequence | gcPBM binding intensity (ln)
ATAATGAACAATATTATATATAAAATATAATTTATA [GTGCAC_negctrl_site564] | 8.09 ± 0.52
ATGTATGTTTGTTATGCACACAAATGCATCTTATTT [CACACA_site8861] | 8.73 ± 0.31
ATTATGTATACATAAACACACATATATATAAAAAAA [CACACA_site262] | 8.86 ± 0.44
ATTATATATATGTGCACACAAAAGATATATATATAT [CACACA_site5205] | 10 ± 0.17
ATATTTATTTGTTAGTGTACATACATATATATATAT [XGTACX_site1347] | 10 ± 0.12
AAATAATTTACTTAATGTACATATATATATATATAT [XGTACX_site8594] | 10.59 ± 0.092
TTTTAATTTATTTATGCACACATATATAATTACACA [CACACA_site8126] | 8.39 ± 0.26
AAAAATAAACAATATATAGTTATATATATATATATA [TGCATGCA_negctrl_site82] | 10.1 ± 0.29
TAAGAAAGACAAAAAAAATGAAAAGAAAAAAAATGA [CACACA_negctrl_site1469] | 8.52 ± 0.5
AAATGTTGAAAAATATGTACATATTATATATATTAT [XGTACX_site1165] | 8.56 ± 0.33
AATATAAGCAAATACACACACACATATATATATATA [CACACA_site3805] | 10 ± 0.35
ATTTAGAAAAAATATACACACAGCCTAAACATGCAT [CACACA_site4067] | 8.79 ± 0.23
TATTTATTTGTTTAAGGTACAGAACAAATTTTTATT [XGTACX_site7414] | 8.35 ± 0.42
CATAAATACATACATACACACATATATATATATATA [CACACA_site2106] | 10.2 ± 0.41
ATATTTATTATTATATGTACGTAACATCTTTATAAA [XGTACX_site7016] | 8.75 ± 0.37
AAATGTTCTTAAAAATGAATAATATATATATATATA [CACACA_negctrl_site796] | 9.8 ± 0.16
TAAAAAATATTATATACACACAGTATAAAAAAAAAT [CACACA_site4012] | 8.61 ± 0.53
TTATCCTATACAAGGGAAAAATAAAATAAAATAAAT [TGCATGCA_negctrl_site272] | 8.59 ± 0.41
ATATACATATTATAATGTACATATTTTAATAACCTT [XGTACX_site7617] | 8.44 ± 0.33
AGTGTCATATAAAATTGTACTTTTTTTTTTTTCTTT [XGTACX_site5651] | 8.7 ± 0.29
ATTGATTATTTTCTAGTGCATAAAATAATTTTTTTT | 8.56 ± 0.21
AATTTAAATTAGAATTGTACTAGAAAAGGAATATAT [XGTACX_site6162] | 8.72 ± 0.37
AATATAAATAAAAACACACACAATGGTACAGATATA [CACACA_site5930] | 8.99 ± 0.43
AATTATATAATCTTATAACATAATATAATAACATTT [CACACA_negctrl_site187] | 8.07 ± 0.44
